# The supplement of paper PMC12217912
# This is one part of the list. The full chains were built here from the parent and the listed change. Inactive controls read about 0.05.
# B1: TEV protease; numbered along this chain (parent)
# chain: MGESLFKGPRDYNPISSSICHLTNESDGHTTSLYGIGFGPFIITNKHLFRRNNGTLVVQSLHGVFKVKDTTTLQQHLVDGRDMIIIRMPKDFPPFPQKLKFREPQREERICLVTTNFQTKSMSSMVSDTSCTFPSGDGIFWKHWIQTKDGQCGSPLVSTRDGFIVGIHSASNFTNTNNYFTSVPKNFMELLTNQEAQQWVSGWRLNADSVLWGGHKVFMVKPEEPFQPVKEATQL
# Variants of: B1
# Experiment: raw area under fraction-flipped curve 0-4 h after induction (AUC4h, not background-subtracted), DNA-recorder readout of cleavage of the substrate (dimensionless); higher = more cleavage of the substrate by the protease variant
# Conditions: temperature: 34 °C; time window: 0-4 h after rhamnose induction
# Method: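 In vivo DNA recorder in E. coli TOP10(DE3) ΔrhaA at 34 °C. Each TEVp single-site mutant (parent TEVp 0) is paired with a single-site variant of the 7-mer TEVs (canonical ENLYFQ|S). The substrate sits between flexible linkers in a Bxb1-sfGFP-TEVs-SsrA fusion, so cleavage stabilises Bxb1 and speeds flipping of a recombination array, read by NGS. The value is the raw area under the fraction-flipped curve over 0-4 h after rhamnose induction (AUC4h), with ≥20 reads per time point. It is not background-subtracted; inactive controls average about 0.047.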
# 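Note: Bxb1 expression induced with 0.2% (w/v) L-rhamnose at OD600 near 0.5, cultures sampled hourly, flipped fraction per protease–substrate barcode pair counted by paired-end Illumina sequencing.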
Variant,area with substrate DNLYFQS,area with substrate HNLYFQS,area with substrate KNLYFQS,area with substrate LNLYFQS,area with substrate MNLYFQS,area with substrate NNLYFQS,area with substrate PNLYFQS,area with substrate SNLYFQS,area with substrate VNLYFQS,area with substrate WNLYFQS,area with substrate TNLYFQS,area with substrate YNLYFQS,area with substrate GNLYFQS,area with substrate FNLYFQS,area with substrate INLYFQS,area with substrate QNLYFQS,area with substrate RNLYFQS
T233C,0.071,0.056,0.0669,0.0754,0.0558,0.0468,0.0646,0.0748,0.0651,0.0425,–,–,–,–,–,–,–
L235A,0.0877,0.0562,0.054,0.0814,0.0569,0.0496,0.0782,0.0755,0.0997,0.0709,0.0659,0.0707,–,–,–,–,–
Q227Y,0.0842,0.0653,0.0878,0.0783,0.101,–,0.0485,–,–,0.0649,0.0646,0.0651,0.0512,–,–,–,–
Q227R,0.0799,–,–,0.0869,0.0752,–,0.0652,–,0.0705,–,0.0784,–,0.0537,–,–,–,–
V64S,–,–,0.0679,–,–,0.0804,0.0706,–,–,0.0439,0.0711,–,–,0.0453,0.0779,–,–
Q234M,0.0781,0.0615,–,0.0491,0.077,–,–,–,0.0649,0.0663,–,–,0.0695,–,0.0646,0.0522,0.0554
Q234C,0.0737,0.0777,–,–,–,–,0.0622,0.0576,–,0.0561,–,0.0657,–,0.0598,–,–,–
E231R,0.0503,0.0566,–,0.0821,0.0734,0.0664,0.0724,–,0.0577,0.0634,0.129,–,–,0.0566,0.0792,–,–
P184T,–,0.0605,0.0544,0.054,0.0591,–,0.0555,0.0665,–,0.0543,0.0708,–,0.0508,0.0567,0.0609,–,0.0671
P184D,–,0.0503,–,0.0543,0.0533,0.0522,–,0.0644,–,0.0563,–,–,0.0371,–,0.0433,–,–
G136S,–,0.05,0.0616,–,–,0.064,–,0.058,–,–,–,–,0.0555,–,–,–,–
G8E,–,–,–,–,–,–,–,–,–,–,–,–,–,0.0564,–,0.0805,–
P228A,0.0874,0.0645,–,–,0.0546,–,0.0285,0.0645,–,–,–,0.0557,–,–,0.0555,0.0768,0.0693
P228C,0.0981,0.0618,0.0686,0.0621,0.0626,–,0.079,–,0.0605,0.0625,0.0628,0.077,0.0814,0.0535,0.0615,0.0677,0.0546
P228E,0.0753,0.0753,–,–,0.061,–,0.0646,–,0.0477,–,–,–,–,0.0515,0.0706,–,–
M88S,–,0.054,0.0455,0.0739,0.0771,0.0594,–,0.0549,–,0.0432,0.0707,–,–,0.0484,–,0.0703,–
P222N,0.068,0.0697,–,0.0611,0.0518,–,0.0628,0.0634,0.0599,0.0657,0.052,0.0253,–,0.0491,0.0577,0.0608,0.0519
G80Y,–,–,–,0.0789,–,0.0726,–,–,–,0.0677,0.0587,0.0597,0.0575,–,0.0864,–,–
D208G,–,0.0758,–,0.0595,0.0636,0.0851,0.0745,–,0.0603,–,0.0663,–,0.056,0.0417,–,–,–
V200R,–,–,–,0.0715,–,–,–,–,–,0.0749,0.073,–,–,–,–,–,–
F226S,0.0889,–,0.0528,0.0731,0.0617,0.0645,0.0642,–,–,0.0542,0.0552,0.0653,0.0605,0.066,0.0756,0.0718,–
P104Q,–,0.0531,–,0.0513,0.0884,–,0.0541,0.0611,–,0.0475,0.0497,–,0.0465,–,0.0437,0.0276,–
V229P,0.104,0.0577,0.0676,0.0701,0.0568,–,0.0645,0.0698,–,0.0636,0.0658,0.0804,–,0.0634,0.0738,–,–
P96G,–,–,0.0557,–,0.0586,0.0582,–,–,–,0.0628,0.0518,–,–,0.0645,0.061,–,–
